Reference: PubChem BioAssay AID894 (National Center for Advancing Translational Sciences (NCATS), 2007)
The whole screen tested about 150,000 compounds, of which about 6,500 (4.3%) were called active. Inconclusive results, whose numbers are uncertain, are shown with a selection of clear calls. The call rests on the fitted dose curve; in most records, active means well fitted inhibition curve with a large enough effect (not every such curve was filed as active); inconclusive means small, poorly fitted or top-dose-only effect, or another doubt; inactive means no such curve, though single readings can be large or run the other way. No potency is given beside an inconclusive call; the fits are too rough.

What follows are compounds tested against 15-hydroxyprostaglandin dehydrogenase [NAD(+)] (Homo sapiens) (UniProt P15428) (assay: qHTS Assay for Inhibitors of HPGD (15-Hydroxyprostaglandin Dehydrogenase)). Settings: purified HPGD, NADH fluorescence kinetic, PGE2 substrate; activity change, negative = inhibition: hits give low values.
Method in brief: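 NADH formation kinetics: reaction with 30 uM PGE2 and 1 mM NAD+ (final), 20 nM enzyme, Tris-HCl pH 8 with Tween 20, after 15 min compound preincubation at room temperature. Fluorescence change, last versus first of five reads.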
On the % scale 0 is the no-effect control and ±100 the full control effect; potency means the concentration at half of the fitted maximal effect; tags describe the fitted curve by direction and shape.

UniProt P15428, sequence (P15428 whole entry, looked up): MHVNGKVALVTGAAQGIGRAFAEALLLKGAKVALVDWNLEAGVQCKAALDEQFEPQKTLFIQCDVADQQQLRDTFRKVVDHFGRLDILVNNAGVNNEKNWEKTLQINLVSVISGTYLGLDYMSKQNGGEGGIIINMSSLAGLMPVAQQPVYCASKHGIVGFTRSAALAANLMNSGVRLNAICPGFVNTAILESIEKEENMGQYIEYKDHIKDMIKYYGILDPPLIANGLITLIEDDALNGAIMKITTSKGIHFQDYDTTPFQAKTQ

Structure (SMILES) | Potency | activity change, negative = inhibition
COCCN(CCOC)S(=O)(=O)c1ccc(C(=O)Nc2sc3c(c2C(N)=O)CCCCC3)cc1 | inconclusive [inhibitor, single point] | –
Cc1ccc(N=Cc2sc(O)c3ccccc23)cc1 | – | inactive: -17.9%
COc1ccc(C(=O)n2nc(-c3ccco3)nc2N)cc1 | inconclusive [inhibitor, partial curve] | –
Cn1c2ccccc2c2cc(C(=O)OCC(=O)N3CC(=O)Nc4ccccc43)sc21 | inconclusive [inhibitor, partial curve] | –
S=c1[nH]nc(C2CCCCC2)n1/N=C/c1ccc(Br)s1 | active: 5.01 µM | –
COc1ccc(C2=C(Nc3ccc(F)cc3)c3ccccc3C2=O)cc1 | active: 25.1 µM | –
S=c1[nH]nc(Cc2ccccc2)n1-c1ccccc1 | inconclusive [inhibitor, single point] | –
C=CCNC(=O)C(C)Sc1ccc(Cl)cc1 (centres undefined) | inconclusive [inhibitor, single point] | –
Cc1c(C(=O)N2CCCCC2)sc(N)c1C#N | active: 12.6 µM | –
CCCCCCNC(=O)c1cccc(-c2ccc(C)c3ccccc23)n1 | inconclusive [inhibitor, partial curve] | –
COCCn1c(=O)[nH]c2cc(C(=O)NCC3CCCO3)ccc2c1=O (centres undefined) | inconclusive [inhibitor, single point] | –
COc1ccc(/C=C(\C#N)C(=O)NCC2CCCO2)cc1OC (centres undefined) | active: 22.4 µM | –
O=c1[nH]c(-c2ccccc2O)nc2ccccc12 | active: 2.82 µM | –
N#CC1=C(SCc2ccccc2)NC(=O)C(C#N)C12CCCC2 (centres undefined) | active: 17.8 µM | –
O=c1[nH]c(Cc2ccc(F)cc2)nc2scc(-c3ccc(F)cc3)c12 | active: 22.4 µM | –
CC1CCN(c2ccc(NC(=S)NC(=O)c3ccco3)cc2)CC1 | – | inactive: -25.9%
O=C(c1ccc(=O)oc1)N1CCCc2ccccc21 | inconclusive [inhibitor, partial curve] | –
CCOC(=O)c1c(NC(=O)c2nn(CC)cc2Br)sc2c1CCCCC2 | inconclusive [inhibitor, partial curve] | –
COc1ccc(-c2ncc3ccccn23)cc1OC | inconclusive [inhibitor, partial curve] | –
CC1=C(C(=O)Nc2ccccc2)C(c2ccco2)C(C#N)=C(SCc2ccccc2)N1 (centres undefined) | inconclusive [inhibitor, single point] | –
COc1cc(CNc2ccc3[nH]c(=O)[nH]c3c2)cc(Br)c1OCC(=O)NC(C)(C)C | inconclusive [inhibitor, partial curve] | –
COc1cc(C(=O)Nc2cnc(NC(=O)C(C)C)cc2C)cc(OC)c1OC | – | inactive: -3.69%
C=CCn1c(CSc2nc3ccccc3s2)nnc1SCC(=O)OCC | – | inactive: 3.81%
O=C(NCc1nnc(SC/C=C/c2ccccc2)o1)c1ccco1 | inconclusive [inhibitor, partial curve] | –
CC(O)c1nc2ccccc2n1Cc1ccc([N+](=O)[O-])cc1 (centres undefined) | – | inactive: -6.78%

Structure (SMILES) | Potency | activity change, negative = inhibition
Cc1nc(CCNC(=O)Cc2ccc(Cl)cc2)cs1 | – | inactive: -4.29%
COc1ccc(S(=O)(=O)N2CCC(C(=O)N3CCCCCC3)CC2)cc1 | active: 15.8 µM | –
COc1ccc(-c2oc(NC(=O)CSc3ncn[nH]3)c(C#N)c2-c2ccc(OC)cc2)cc1 | – | inactive: -12.9%
CC1(C)CC(=O)C(C=Nc2cccc(/N=C/C3=C(O)CC(C)(C)CC3=O)n2)=C(O)C1 | – | inactive: -19.5%
Cc1noc(C)c1COc1cccc(C(=O)NCc2ccccc2Cl)c1 | active: 15.8 µM | –
Cc1cc(N=CC2=C(O)CC(C)(C)CC2=O)no1 | – | inactive: -1.24%
CCN(CC)c1ccc2cc(-c3nnc(-c4ccncc4)o3)c(=O)oc2c1 | inconclusive [inhibitor, partial curve] | –
COC(=O)c1ccc(COC(=O)CCc2nc(-c3ccccc3)c(-c3ccccc3)o2)cc1 | inconclusive [inhibitor, single point] | –
O=c1oc2ccccc2n1CCn1c2ccccc2c2nc3ccccc3nc21 | inconclusive [inhibitor, single point] | –
Cc1ccc(CC(=O)OCC(=O)NC2CCCC(C)C2C)cc1C (centres undefined) | – | inactive: -6.66%
Cc1ccc(NC(=O)CN(C)S(=O)(=O)c2ccc(Br)s2)cc1F | – | inactive: -6.93%
COC1=Cc2c(ccc3ccc(=O)oc23)OC1(C)C | – | inactive: -29.7%
COc1ccc(P(=O)(COc2ccc([N+](=O)[O-])cc2)c2ccc(OC)cc2)cc1 | – | inactive: -5.28%
Oc1ccc(N=Cc2ccc(-c3cccs3)s2)cc1 | inconclusive [inhibitor, partial curve] | –
Cc1nn(S(=O)(=O)c2ccc(Cl)cc2)c(C)c1Sc1ccc([N+](=O)[O-])cc1 | – | inactive: -17.2%
CCOC(=O)c1sc(NC(=O)CSc2n[nH]c(-c3ccncc3)n2)c(C#N)c1C | active: 5.01 µM | –
O=C(CNCCC1=CCCCC1)Nc1ccccc1N1CCCCC1 | inconclusive [inhibitor, partial curve, poor fit] | –
COC(=O)C1=C(C(=O)OC)C(c2ccccc2O)c2sc(=O)[nH]c2S1 (centres undefined) | active: 22.4 µM | –
COc1ccc2oc(=O)c(C(=O)NCc3cccnc3)cc2c1 | inconclusive [inhibitor, partial curve] | –
O=C(Nc1ccccc1N1CCCCC1)c1ccccc1F | – | inactive: -20.9%
CNC1=C(Cl)C(=O)c2ccncc2C1=O | – | inactive: -2.92%
COc1cccc(N2CC(O)=C(c3nc4ccccc4c(=O)[nH]3)C2=N)c1 | inconclusive [inhibitor, partial curve] | –
COc1cc(Cl)c(C)cc1NC(=O)c1cc(S(=O)(=O)N(C)C)ccc1N1CCCC1 | inconclusive [inhibitor, single point] | –
CCSc1nnc(NC(=O)Cc2ccc(OC)c(S(=O)(=O)N3CCOCC3)c2)s1 | – | inactive: -9.14%
